The full ranking holds about 33,000 sequences; the median of “E-score (-0.5 to 0.5)” is about -0.043, and the highest 2% start at about 0.37. Some of the results follow.
These sequences were tested against T1, Upc2 (UniProt Q12151) (assay: PBM E-score (8-mer binding enrichment) (E-score (-0.5 to 0.5)); higher = stronger / more preferred TF binding; most listed sequences are background and not binding sites). Settings: protein concentration: 200 nM; construct: GST-full length.
T1 sequence: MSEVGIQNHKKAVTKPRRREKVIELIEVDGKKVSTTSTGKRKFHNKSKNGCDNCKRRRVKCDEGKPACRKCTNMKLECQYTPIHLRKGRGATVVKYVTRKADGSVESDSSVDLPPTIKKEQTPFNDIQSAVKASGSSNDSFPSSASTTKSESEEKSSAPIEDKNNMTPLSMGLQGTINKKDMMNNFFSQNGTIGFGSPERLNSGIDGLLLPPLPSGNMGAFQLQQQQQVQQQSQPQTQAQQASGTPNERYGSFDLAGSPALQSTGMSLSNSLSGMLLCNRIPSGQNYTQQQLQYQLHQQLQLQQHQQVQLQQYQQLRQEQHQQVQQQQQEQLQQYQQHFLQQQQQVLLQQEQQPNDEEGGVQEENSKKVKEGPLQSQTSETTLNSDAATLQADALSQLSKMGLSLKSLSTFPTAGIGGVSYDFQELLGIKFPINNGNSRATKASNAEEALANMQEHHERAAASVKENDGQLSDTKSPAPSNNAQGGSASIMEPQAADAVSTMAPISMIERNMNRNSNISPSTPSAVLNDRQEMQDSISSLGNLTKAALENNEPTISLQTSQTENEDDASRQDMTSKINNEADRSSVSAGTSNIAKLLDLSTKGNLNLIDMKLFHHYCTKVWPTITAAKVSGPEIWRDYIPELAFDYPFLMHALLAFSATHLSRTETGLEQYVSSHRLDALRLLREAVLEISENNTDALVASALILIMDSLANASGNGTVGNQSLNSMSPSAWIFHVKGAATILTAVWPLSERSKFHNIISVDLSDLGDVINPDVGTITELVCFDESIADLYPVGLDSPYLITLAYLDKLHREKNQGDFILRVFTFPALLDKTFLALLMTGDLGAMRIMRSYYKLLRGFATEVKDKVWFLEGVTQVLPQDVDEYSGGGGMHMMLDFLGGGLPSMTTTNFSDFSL
Protocol: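 Universal 'all 10-mer' protein binding microarrays (Agilent AMADID 015681) probed with GST-tagged S. cerevisiae TFs (full-length or DBD) made by in vitro transcription/translation (PURExpress), about 100-200 nM. Bound TF was detected with fluorescent anti-GST. Each ungapped 8-mer (which stands for itself and its reverse complement) is scored by the PBM enrichment score (E-score), a modified Wilcoxon-Mann-Whitney statistic from -0.5 to +0.5, computed with the Universal PBM Analysis Suite. Scale: above 0.35 generally sequence-specific binding.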

Sequence	PBM E-score
AAAAGGCA	-0.0264
AAAGTGCT	-0.224
AGCACCGA	0.0328
ATACTGGA	0.0354
AACGTACT	0.196
TCCAATAA	-0.0391
AAGGCAAT	-0.0265
ATAGCCTG	-0.148
AAGCCCAG	-0.198
GGTGTTGA	-0.212
CGCCCCGC	0.0186
ACATAGAC	-0.0261
ACACATCC	-0.037
GACTGCAA	-0.294
AAAACCTC	-0.0808
CGCCCTGC	-0.0784
GAGGGAGA	-0.16
ATTAAGCA	-0.137
CAGTGCTC	-0.0113
TCGGTGAA	0.129
AAGCTTAC	0.0517
TAACATGA	-0.128

Sequence	PBM E-score
AGCCTACG	0.0978
CATTGGAC	-0.169
CGTAAATC	0.352
CGAGGTTA	0.0876
CCTTTTTA	0.0606
TGAGGCCA	-0.00759
ACTGTGCA	-0.00243
CGGGGTGA	-0.0566
AGCGAGGC	0.296
AAGCGTAC	0.245
ATAGGATG	0.102
AATCTATA	0.171
GCGAGTTA	0.116
CAGCTTCG	0.0472
GACTTCGA	-0.111
CGCAACCG	0.182
GATTTAGA	-0.0125
CACGTACA	0.272
AGTCCGCC	-0.164
ATAGTAAG	0.0249
GCTCAGGA	0.0183
AAAGTGTT	0.0836

Sequence	PBM E-score
ACGAAGTA	0.345
CGTTTTAG	0.134
GGACCACA	-0.0517
AGGTTCCA	-0.264
AATGCGGT	-0.165
CCTCCAGA	-0.249
AGGCAGAT	-0.223
ACTCGGGG	-0.212
GGACTGTA	-0.147
ACATCGCT	-0.0124
CGGCAAAC	0.193
AAGAGAAG	-0.0211
AGCGTTGC	-0.0771
TAATCGCA	0.173
AGTCAGAG	-0.252
CAACGGCG	-0.102
AGTGTTGC	-0.0649
GGAGTCCA	-0.125
TAATTAAA	0.0197
ATCATTGG	-0.123
CATCCCTC	-0.182
TAAATGCA	0.0283

Sequence	PBM E-score
CAAGTGAA	-0.0871
TGAACGAA	0.458
ATACACCC	-0.0137
ACTCACCC	-0.256
ACTCCGCC	-0.347
TAGAACGA	0.383
AATATGTA	-0.0108
AGGTTCGC	0.0522
ACGACAGG	0.359
ATACCCCC	-0.141
CGGGAAAC	0.196
AGGCTCAG	-0.182
CCTAGGTA	-0.196
GGCGGAAA	-0.0651
CCCAGACG	-0.0246
ACTCTGAG	-0.171
CGGTCGTC	0.0119
ACCATGGT	0.0532
CCCCTTTA	-0.129
CCCCCACC	-0.264

Source: the supplement of paper PMC3334620
